# Reference: the supplement of paper PMC3334620
# Over roughly 33,000 sequences, “E-score (-0.5 to 0.5)” has its median near -0.04; the highest 2% begin near 0.36. The list shows a part of the results.
# Target: T1, Hmlalpha2 (UniProt P0CY09)
# T1 sequence: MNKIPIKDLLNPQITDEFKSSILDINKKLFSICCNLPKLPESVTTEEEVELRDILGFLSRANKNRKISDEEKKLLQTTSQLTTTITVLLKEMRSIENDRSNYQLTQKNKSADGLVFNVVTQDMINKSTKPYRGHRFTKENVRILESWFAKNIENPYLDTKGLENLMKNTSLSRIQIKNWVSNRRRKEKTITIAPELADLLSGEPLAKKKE
# Experiment: PBM E-score (8-mer binding enrichment) (E-score (-0.5 to 0.5)); higher = stronger / more preferred TF binding; most listed sequences are background and not binding sites
# Details: protein concentration: 200 nM; construct: GST-full length
# Summary of the method: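 For each ungapped eight-base word taken together with its reverse complement, the Universal PBM Analysis Suite assigned an E-score. Binding data came from GST-tagged yeast transcription factors, applied at about 100-200 nM, on universal all-10-mer Agilent arrays made double-stranded by primer extension. Fluorescent anti-GST marked bound protein, and scans were normalised with masliner.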
row,Sequence,PBM E-score
1,ATCTGCAG,0.093
2,CGCAGTAA,0.0542
3,GAAATTAC,0.307
4,GCAGCTAA,-0.129
5,CTAGCAGC,-0.0946
6,TAAGTTCA,0.111
7,CACTGTTC,-0.0195
8,CAGCTTGC,-0.0467
9,GCGAACGC,-0.0151
10,CCAGATTA,0.171
11,ATGTTACA,0.401
12,ACCCCTTG,-0.109
13,ACTAGTTC,0.14
14,ATATACAG,0.131
15,GGTTAGTA,0.196
16,AAAAGTAC,0.145
17,ACACGGAA,0.376
18,CAGAGCCA,-0.114
19,ATAGATGA,0.00827
20,ATCCTTAC,0.0596
21,AGGCTTTA,-0.12
22,CGGGCAAA,-0.0224
23,ACCCGTGG,-0.298
24,ATCGATAA,-0.00464
25,CAATATGG,-0.174

row,Sequence,PBM E-score
1,AACCTACG,0.142
2,GTTTTGGA,0.193
3,CTCGACAA,0.124
4,AGGTACCT,-0.161
5,GAATGATC,-0.118
6,ACGTACCG,-0.0107
7,CGTTCGTA,0.187
8,TATGGAGA,-0.109
9,CCTGAATC,-0.0621
10,ACCATACA,-0.0188
11,GCTAAGAA,-0.156
12,CGTAAGAG,0.133
13,GTTGTTAA,0.359
14,CTTAGCAC,0.104
15,GCTATAAA,0.0343
16,GACGAAAA,0.2
17,ACTGCTAC,0.0549
18,AGTTAGTA,0.157
19,CTTAGCCC,-0.163
20,AGGATCTG,-0.22
21,AGCCGGCT,-0.336
22,AGCATCGG,-0.103
23,CGTTAGCA,0.162
24,GGTTTCCA,-0.263
25,AATCACCA,-0.0277

row,Sequence,PBM E-score
1,AACTAAAT,-0.0256
2,ACAGGCCC,-0.155
3,CCACTTTC,-0.158
4,CAGGGACG,0.0208
5,CGAATGGC,-0.243
6,TCGGCCAA,-0.148
7,GGCCACGA,-0.24
8,CCCACTGC,-0.354
9,CAGCCCAA,-0.0907
10,TCGTGCCA,0.0485
11,AGTGGCGG,-0.226
12,CGAACCGA,0.0732
13,TAGCTCCA,-0.0488
14,CATTCTTC,-0.0566
15,TACCAAAA,0.0862
16,GTAACGAC,-0.0196
17,CACTAGCA,-0.0208
18,ATGGGCTG,-0.106
19,AGATACGA,-0.016
20,AGAAAAAC,0.0642
21,TCGTCACA,0.0612
22,CTCTTAGA,-0.077
23,CCGGTCCC,-0.474
24,ATTACGAG,0.342
25,AGATTATG,0.00695

row,Sequence,PBM E-score
1,AATTAGCC,-0.101
2,AGCGTGGG,-0.249
3,CACATGCG,0.141
4,CCATCCCC,-0.293
5,ACATCATA,0.207
6,CGGGATCC,-0.14
7,CTTTACTA,0.252
8,CCGTGAAA,0.0347
9,GCCCCTGA,-0.167
10,AACTTGCA,0.0684
11,ACGGTTTG,0.0193
12,CAATGGAA,-0.053
13,ATAAATAA,0.258
14,GTGAGCCA,-0.0308
15,CCTCTTCA,-0.233
16,ATAAGTAA,0.16
17,GTACCTCA,0.191
18,CTAGGCAC,-0.13
19,GCCTGATA,-0.0588
20,AAAGGAAG,-0.141
21,CTCGCGAA,-0.0421
22,ACATACCG,0.174
23,AGCATCAT,0.0296
24,CAAATTTC,0.0555
25,TACGATAA,0.0694

row,Sequence,PBM E-score
1,AACTCGCT,0.12
2,GACCACTC,-0.218
3,AGCTCGCA,-0.122
4,ACAGTCTG,-0.159
5,GAGAGCCC,-0.409
6,GAGCCAGA,-0.132
7,TCGCCCGA,-0.202
8,CGGATAGC,-0.139
9,CCGTCAAA,0.0481
10,GATTTGAA,0.17
11,ACATCGAT,0.189
12,ATTAGAGC,0.123
13,TACTCAGA,0.0601
14,ACTAAGGA,-0.0843
15,CTGACTGC,-0.0336
16,GTGGAGGA,-0.273
17,GACACGCC,0.146
18,GGAAATTA,0.137
19,CTCAGTCA,-0.0346
20,AGCTGGTA,-0.184
21,AACGGGTC,-0.173
22,AGCAAGAT,-0.0474
23,GTTTTGTA,0.299
24,GACGCGAC,0.0875
25,CTCTTGAC,-0.0625

row,Sequence,PBM E-score
1,CTCCCTTC,-0.368
2,AATACAGA,0.204
3,TACTTCTA,0.163
4,ACGAGAGG,-0.0563
5,CGTACATA,0.363
6,AAGCCGAG,-0.239
7,GCGAATCC,-0.192
8,ACCCGACT,-0.0515
9,AGCGGTCA,-0.224
10,TCTATTCA,0.145
11,CATTCGGC,-0.189
12,GGCTGACA,-0.114
13,AAAGGTGG,0.00905
14,ACGGCCTA,0.076
15,ACTCAGAT,-0.0191
16,ACGATTAA,0.142
17,ACCTGAGC,-0.0663
18,AGATGGCA,-0.0466
19,TCCGCGCA,-0.0562
20,AACTATCA,0.0587
21,GTATTACA,0.403
22,CTGCGCGC,-0.00351
23,CGGTGCCA,-0.354
24,AAAGCCCG,-0.197
25,GTTCAGAA,0.0704

row,Sequence,PBM E-score
1,AATTACCG,0.142
2,AACATTCG,0.099
3,AGTGGATG,-0.0671
4,AACAAGAA,0.282
5,TACCTGAA,0.0671
6,ACAGACCC,0.0389
7,CAACAGCA,0.0842
8,CAAACGAG,0.179
9,AATCATAG,0.151
10,ATATTGAA,0.156
11,GACCGGAC,-0.278
12,CACGAGTC,-0.162
13,CTCTAATC,-0.18
14,ACCTTCGC,-0.052
15,CAGCGGAG,-0.172
16,ATTAAGGA,-0.184
17,ATTCTTTG,0.141
18,GCTGATGA,0.0162
19,GCCATTCA,-0.128
20,AGCTGCGA,-0.191
21,CTAGTGAA,-0.0558
22,ACCCAAAC,-0.0155
